B1: TPR 5TU (parent)
chain: GGAUCUUCUCGAUCUAACAAAAAAGACAAAUCUGCCACAAAGCUUGAGAGCAUCUUCGGAUGCAGAGGCGGCAGCCUUCGGUGGCGCGAUAGCGCCAACGUUCUCAACUAUGACACGCAAAACGCGUGCUCCGUUGAAUGGAGUUUAUCAUG

Variants at the background level are over-represented here. Where only a bound is given, the exact number is not on record here.

This data set covers variants of B1. Description: polymerase ribozyme fitness, log enrichment relative to wild type (log ratio); higher = more active; in vitro selection for triplet polymerase activity. In outline: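 Each subunit of a heterodimeric triplet polymerase ribozyme was represented by a PCR-built, transcribed mutant library that underwent triplicate single-round in vitro selection with frozen incubation at −7 °C. Extended constructs were recovered by gel excision, streptavidin-bead capture and RT-PCR, and Illumina sequencing of input and output libraries kept genotypes with ≥10 input reads and ≥1 read per output. Fitness is the logarithm of genotype enrichment relative to wild-type enrichment, from inverse-variance-weighted replicate averages, with a logarithm base of 2.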
Consider U55A A119G U139G, for which the “polymerase ribozyme fitness (log ratio)” value was found to be 0.219. The same measure for U56A A73U G81C U111A U135G: no more than -4.2; for U55A C69U G136A: -3.04. Consider C54U G88C, for which the “polymerase ribozyme fitness (log ratio)” value was no more than -4.2. As to U55A C57A C93U G126U A138G U148A, the “polymerase ribozyme fitness (log ratio)” value was no more than -4.2. Consider U55A C69A G86A G94A C114U U130G U144A, for which the “polymerase ribozyme fitness (log ratio)” value is no more than -4.2. The same measure for U56A C63U U77A C87U U104C U135A: no more than -4.2. Regarding U55A G117A, the “polymerase ribozyme fitness (log ratio)” value is -0.438. For U55A A60U C85G A106U C116U A138U U146G the value was no more than -4.2; for U55A G86U U148A, no more than -4.2. With U55G C57U U82G C87A G88A C95U C116A C118A, the “polymerase ribozyme fitness (log ratio)” value was no more than -4.2.

On to U55A U135A, for which the “polymerase ribozyme fitness (log ratio)” value is -1.74. For U55A G92U the value was -1.03. For U55A C79A A121C the value was no more than -4.2; for U55G C79A G81A A120G, no more than -4.2.

Turning to U55C U78C G117U U135G U151G, the “polymerase ribozyme fitness (log ratio)” value was no more than -4.2. Turning to U55A G84A C95A A97C C103G, the “polymerase ribozyme fitness (log ratio)” value was no more than -4.2. For U55G C87U C93U C108U G141U the value was no more than -4.2; for U55A C72U C93A C99G G140A G143U, no more than -4.2. For U55G G84A C99U A106C A122C A137U the value was no more than -4.2.

Take U55A G81C C87A A91U U144C U145C: the “polymerase ribozyme fitness (log ratio)” value was no more than -4.2. As for U55G C87U C116G U139A, the “polymerase ribozyme fitness (log ratio)” value was no more than -4.2.

On to U55G C87U U111C U148A, for which the “polymerase ribozyme fitness (log ratio)” value is no more than -4.2. For the variant U55C C76G C93G C129G U139C U144G, the “polymerase ribozyme fitness (log ratio)” value was no more than -4.2. For U55A C103G the value was -2.22; for U55A G62C C79A A138U, no more than -4.2. As to U55A A106U A107U, the “polymerase ribozyme fitness (log ratio)” value was -4.11. For U55A G86A C93A U104C A113U G126A the value was no more than -4.2; for U55G G65A A97U U130C, -1.27; for U55A G62U A64C A73C C87U, no more than -4.2. The same measure for U56A C75U G143A: -0.711; for U55G A73C C87A: no more than -4.2. For C54U U77A G84U G88U the value was no more than -4.2; for U56A C57U G83A, 0.0377. In the case of U55A G83U A137C, the “polymerase ribozyme fitness (log ratio)” value is no more than -4.2. With U55G C87U, the “polymerase ribozyme fitness (log ratio)” value was -1.42. The same measure for U55G G88C U109A A121C: no more than -4.2. For the variant U55A U109G A137U, the “polymerase ribozyme fitness (log ratio)” value is -4.19. On to U55A U61A C96A C116G, for which the “polymerase ribozyme fitness (log ratio)” value was -2.17. U55A G88C C96U U101G: the “polymerase ribozyme fitness (log ratio)” value was no more than -4.2. For U55G C79U C105U G136U the value was no more than -4.2. The same measure for U55A A73U C96A A97U C118U: no more than -4.2; for C54U U61A C72A C96U A98U C99A A142C: no more than -4.2; for U56A A66G G88A C95G A97C A119C: no more than -4.2. The same measure for U55C C85U G136C: -3.51; for C54U U55A C85G C149A: no more than -4.2.

U55A G94A C108G: the “polymerase ribozyme fitness (log ratio)” value is no more than -4.2.

With U55A U61G C96U C123U G140C, the “polymerase ribozyme fitness (log ratio)” value was no more than -4.2. In the case of U55A U144G U148C, the “polymerase ribozyme fitness (log ratio)” value is no more than -4.2. The same measure for U55A G71A U90A C96U U135A: no more than -4.2; for U55A C72U C76U U78C G84A: -2.57. The same measure for U55A A115U G133U: no more than -4.2; for U55C G58A C87G: no more than -4.2. The same measure for U55G G83C: -0.921. Consider U55G A98U U144G, for which the “polymerase ribozyme fitness (log ratio)” value came out at 0.317. U55A G136A: the “polymerase ribozyme fitness (log ratio)” value was -0.833. The same measure for U55A U56A G65A C87A: no more than -4.2. The same measure for C54U U56A C79U U82C C114U U127A: no more than -4.2. For the variant U55A G80A, the “polymerase ribozyme fitness (log ratio)” value is -1.65. Consider U55G C69A C99U, for which the “polymerase ribozyme fitness (log ratio)” value is -0.89. In the case of U55A A60C C87A A115G, the “polymerase ribozyme fitness (log ratio)” value was no more than -4.2. With U56A C69G U148A, the “polymerase ribozyme fitness (log ratio)” value was -4.17.

As to U55A A60G C69U G92U A147U, the “polymerase ribozyme fitness (log ratio)” value is -0.244.

As to U55A G70A C76A, the “polymerase ribozyme fitness (log ratio)” value was no more than -4.2. Regarding U56A C57U G86C A98C G141A G152A, the “polymerase ribozyme fitness (log ratio)” value is -3.31. For U55A G67A C85U U90A A98U the value was no more than -4.2; for U55G G59C G94C U102A U127A U135C, no more than -4.2. Regarding U55A G59U A60G G94A, the “polymerase ribozyme fitness (log ratio)” value is -1.02.

As to U55A C69U C93U, the “polymerase ribozyme fitness (log ratio)” value is -3.95.

U55A A89U U102G: the “polymerase ribozyme fitness (log ratio)” value is no more than -4.2.

On to U56A A60U C93U G141U, for which the “polymerase ribozyme fitness (log ratio)” value was -3.71. Regarding U56A C69A U77G G83U C105G, the “polymerase ribozyme fitness (log ratio)” value was no more than -4.2.

Regarding U55A U61G C125G, the “polymerase ribozyme fitness (log ratio)” value is no more than -4.2.

U55A C93G A137G: the “polymerase ribozyme fitness (log ratio)” value was no more than -4.2.

As to C54U U82C C95A G141U, the “polymerase ribozyme fitness (log ratio)” value is -2.99. For U55A G62A C87U C103U the value was -1.44; for U55A G81U G88C A120G G143A, no more than -4.2; for U55A G58U G84A C103U A120C, -0.0961. C54U U55A C95G C96A: the “polymerase ribozyme fitness (log ratio)” value was -3.07. The same measure for U56A A73G U77A G88C A98G C105A: no more than -4.2. For C54U G94C G124A the value was -1.04.

On to C54U U55G G58A A64U G88A C95G U127A, for which the “polymerase ribozyme fitness (log ratio)” value was no more than -4.2.

In the case of U55A G59A A60G U78A C79G C131G, the “polymerase ribozyme fitness (log ratio)” value is no more than -4.2.

For the origin of these results see the RNAGym collection of RNA variant scans (doi:10.1073/pnas.2313332121).
